# According to PubChem BioAssay AID1030 (National Center for Advancing Translational Sciences (NCATS), 2008):
# About 16,000 (7.3%) of roughly 220,000 compounds were called active. The inconclusive results got no clear call from the source; some entries with a clear call stand among them for comparison. The call rests on the fitted dose curve; in most records, active means well fitted inhibition curve with a large enough effect (not every such curve was filed as active); inconclusive means small, poorly fitted or top-dose-only effect, or another doubt; inactive means no such curve, though single readings can be large or run the other way. Potencies of inconclusive entries are left out as doubtful fits.
# Target: Aldehyde dehydrogenase 1A1 (Homo sapiens) (UniProt P00352)
# Chain of UniProt P00352 (P00352 whole entry, looked up): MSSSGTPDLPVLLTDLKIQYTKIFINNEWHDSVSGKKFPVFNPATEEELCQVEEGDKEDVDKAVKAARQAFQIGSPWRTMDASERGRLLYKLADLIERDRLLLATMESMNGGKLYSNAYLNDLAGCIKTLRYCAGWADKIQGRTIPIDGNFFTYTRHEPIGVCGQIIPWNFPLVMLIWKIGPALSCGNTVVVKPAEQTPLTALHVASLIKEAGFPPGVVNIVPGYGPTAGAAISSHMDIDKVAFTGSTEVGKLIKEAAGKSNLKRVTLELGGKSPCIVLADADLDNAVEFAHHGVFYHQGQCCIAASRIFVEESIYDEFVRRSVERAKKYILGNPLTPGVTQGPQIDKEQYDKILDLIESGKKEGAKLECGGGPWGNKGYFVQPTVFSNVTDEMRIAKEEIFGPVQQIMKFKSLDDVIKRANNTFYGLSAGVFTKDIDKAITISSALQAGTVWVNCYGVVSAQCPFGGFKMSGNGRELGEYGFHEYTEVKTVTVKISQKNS
# Experiment: qHTS Assay for Inhibitors of Aldehyde Dehydrogenase 1 (ALDH1A1)
# Conditions: Purified ALDH1A1, NADH fluorescence, propionaldehyde substrate; series mostly up to 75.3 µM
# Potency means the concentration at half of the fitted maximal effect; tags describe the fitted curve by direction and shape.
row,SMILES,Potency
1,O=C(Cc1ccccc1)Nc1cccc(N2C(=O)C=CC2=O)c1,active: 0.708 µM
2,C[C@@H](C(=O)Nc1nc2ccc(F)cc2s1)N1C(=O)C2CC=CCC2C1=O (some centres not stated),"inconclusive [inhibitor, single point]"
3,O=C(Oc1cccc2cccnc12)c1ccc2c(c1)OCCO2,"inconclusive [inhibitor, single point]"
4,Cc1noc(C)c1CSc1nnc(-c2ccccc2)n1Cc1ccco1,inactive
5,Cc1nnsc1C(=O)N/N=C/c1cccc(C(F)(F)F)c1,inactive
6,COc1ccc(C2CC(c3cc(OC)ccc3OC)n3nnnc3N2)cc1 (configuration not stated),inactive
7,NNC(=O)c1cc2c(ccc3ccccc32)o1,"inconclusive [inhibitor, partial curve]"
8,O=C(Cn1cnc2ccccc21)OCC(=O)N1CCCc2ccccc21,active: 14.1 µM
9,COCCNC(=O)C1CCN(S(=O)(=O)N2CCC3(CC2)OCCO3)CC1,"inconclusive [inhibitor, partial curve]"
10,Cc1ccc(S(=O)(=O)N2CCOCC2)cc1NC(=O)c1cc2c(s1)CCC2,"inconclusive [inhibitor, single point]"
11,O=C(NCc1cccc(Cl)c1)c1ccc2c(c1)OCO2,inactive
12,COCCSc1ccccc1C(=O)NCc1ccco1,active: 14.1 µM
13,COc1ccc(OC)c(C2=Nn3c(nnc3C3CCCCC3)SC2)c1,"inconclusive [inhibitor, single point]"
14,Cc1cccc(SCC(=O)Nc2ccccc2[N+](=O)[O-])c1,"inconclusive [inhibitor, partial curve]"
15,Cc1cc(C(=O)O)ccc1-c1ccc(/C=C2\NC(=O)N(Cc3ccccc3Cl)C2=O)o1,inactive
16,O=c1ccc(/C=C/c2ccccc2)nn1Cc1ccccc1,"inconclusive [inhibitor, partial curve]"
17,O=C(NCc1ccco1)C1CCCN(S(=O)(=O)c2ccc(Br)cc2)C1 (configuration not stated),"inconclusive [inhibitor, single point]"
18,CC1(c2ccccc2)NC(=O)N(Cc2ccc([N+](=O)[O-])cc2)C1=O (configuration not stated),inactive
19,O=C(NC1CCCCC1)C(c1ccncc1)N(CC1CCCO1)C(=O)C(F)(F)F (configuration not stated),"inconclusive [inhibitor, single point]"
20,CCOC(=O)c1cc(-c2ccccc2)sc1NC(=O)COC(=O)c1ccc(Cl)c(S(N)(=O)=O)c1,"inconclusive [inhibitor, single point]"
21,Cc1sc2nc(CSCC(=O)N(CCC#N)c3ccccc3)[nH]c(=O)c2c1C,"inconclusive [inhibitor, single point]"
22,Cc1cc(C(=O)Nc2nc3c(s2)CCCC3)no1,active: 11.2 µM
23,Cc1cccc(C)c1NC(=O)N1CC=C(n2c(=O)[nH]c3ccccc32)CC1,active: 6.31 µM
24,CCCCN(C)C(=O)c1nc2ccccn2c1CN1CCN(C/C=C/c2ccccc2)CC1,inactive

row,SMILES,Potency
1,Cc1ccc(OCC(=O)Nc2ccc(O)c(C(=O)O)c2)cc1C,"inconclusive [inhibitor, partial curve]"
2,O=c1c(Cl)c(N2CCOCC2)cnn1-c1ncc(C(F)(F)F)cc1Cl,inactive
3,COc1ccc(-n2c(=S)[nH]c3cc(C(=O)O)ccc3c2=O)cc1,inactive
4,Cn1c(=O)c2c(nc(SCc3cccnc3)n2Cc2ccc(F)cc2)n(C)c1=O,"inconclusive [inhibitor, single point]"
5,CN=c1nc(-c2ccccc2)n(-c2ccccc2)s1,active: 1.41 µM
6,Cc1cc(C)n(CCNC(=O)c2cc(COc3ccc(F)cc3Cl)on2)n1,inactive
7,Cn1cccc1Cc1nnc(SCC(=O)NC2CCCC2)n1-c1ccc(F)cc1,"inconclusive [inhibitor, single point]"
8,CC1CCc2nc(NC(=O)CN3CCN(c4ccccc4)CC3)sc2C1 (configuration not stated),"inconclusive [inhibitor, single point]"
9,CCCNC(=O)Cn1nc([N+](=O)[O-])c([N+](=O)[O-])c1C,inactive
10,Cn1cccc1C(=O)OCC(=O)c1cc2ccccc2o1,"inconclusive [inhibitor, single point]"
11,CCOC(=O)/C(C#N)=C1/C=CN(c2ccccc2)C=N1,"inconclusive [inhibitor, single point]"
12,CCCC(=O)Nc1nc2nc(-c3ccccc3)cc(=O)n2[nH]1,inactive
13,COc1ccc(-c2nc(C#N)c(NCCc3ccccc3)o2)cc1OC,"inconclusive [inhibitor, partial curve]"
14,NC(=O)C1CCN(C(=O)CCSc2ccccc2)CC1,"inconclusive [inhibitor, single point]"
15,Cc1ccc(Nc2ccc(N)cc2S(=O)(=O)O)cc1,"inconclusive [inhibitor, single point]"
16,Cc1nn(-c2ccc(F)cc2)c2sc(C(=O)OCC(=O)N3CCC(C)CC3)cc12,"inconclusive [inhibitor, partial curve]"
17,c1csc(C2C3=C(Nc4ncnn42)c2ccccc2OC3)c1 (configuration not stated),"inconclusive [inhibitor, single point]"
18,CN(C)CCOCCOc1ccc(Cl)c2ccccc12,"inconclusive [inhibitor, partial curve]"
19,C=CCOC(=O)C1=C(C)NC(SCC(=O)Nc2ccccc2)=C(C#N)C1c1ccco1 (configuration not stated),"inconclusive [inhibitor, full curve, poor fit]"
20,Cc1ccc(NC(=O)CN2C(=O)N/C(=C/c3cc(C)n(-c4ccc(C(=O)O)cc4)c3C)C2=O)cc1,"inconclusive [inhibitor, single point]"
21,CCNc1nc(-c2cc(C)n(Cc3ccco3)c2C)cs1,"inconclusive [inhibitor, single point]"
22,COc1ncc2nc(-c3ccc(Cl)cc3)c(=O)n(-c3ccccc3)c2n1,"inconclusive [inhibitor, single point]"
23,COc1ccc2c(c1)CCc1cnc(N)nc1-2,"inconclusive [inhibitor, partial curve]"
